In PubChem BioAssay AID1159554 (Broad Institute, 2015):
The whole screen tested about 94,000 compounds, of which about 2,100 (2.2%) were called active. Inconclusive means that the source gave no clear call. Such entries were picked first, then a sample of the others. No stated cut-off is given here; in the data, active means activity change below about -80%; inconclusive means no clear call, values can overlap the other calls; inactive means above that.

Assay: P. falciparum Dd2 growth inhibitors, primary screen, SYBR Green fluorescence, single dose replicates (AID 1159554)
Conditions: 72 h, at 10 µM, stronger effect = lower value

Row | SMILES | activity change
1 | C[C@H](CO)N1C[C@H](C)[C@@H](CN(C)C(=O)c2cccc(F)c2)Oc2ncc(/C=C/c3ccccc3)cc2C1=O | inconclusive: -81.9%
2 | CCC(=O)Nc1ccc2c(c1)C(=O)N(C)[C@H]1CC[C@H](CC(=O)NCc3ccccc3Cl)O[C@@H]1CO2 | inactive: -6.99%
3 | COc1ccccc1-c1ccc([C@@H]2[C@H]3CN(C(=O)NC4CCCC4)CCCCN3[C@H]2CO)cc1 | inactive: 1.07%
4 | C[C@H](CO)N1C[C@H](C)[C@H](CN(C)S(=O)(=O)c2ccccc2F)OCc2ccccc2-c2c(n(C)c3ccccc23)C1=O | active: -87.3%
5 | Cc1ccccc1-c1ccc2c(c1)O[C@H](CN(C)Cc1ccncc1)[C@@H](C)CN([C@@H](C)CO)S2(=O)=O | inconclusive: -80.2%
6 | CNC[C@H]1Oc2ncc(-c3ccc(C)cc3)cc2C(=O)N([C@H](C)CO)C[C@H]1C | inconclusive: -81%
7 | COc1ccc2c3c([nH]c2c1)[C@H](CO)N(Cc1cc(F)ccc1F)CC31CN(C(C)=O)C1 | inconclusive: -81.4%
8 | Cc1ccc(S(=O)(=O)Nc2ccc3c(c2)C(=O)N([C@@H](C)CO)C[C@H](C)[C@@H](CN(C)S(=O)(=O)c2ccc(Cl)cc2)OCCCC[C@H](C)O3)cc1 | active: -86.1%
9 | C[C@@H]1CN([C@H](C)CO)C(=O)c2cc(/C=C/c3ccccc3)cnc2O[C@H]1CN(C)C(=O)C1CCCCC1 | inconclusive: -82%
10 | COc1ccc(NC(=O)N(C)C[C@H]2Oc3ncc(-c4cccnc4)cc3C(=O)N([C@H](C)CO)C[C@@H]2C)cc1 | active: -82.9%
11 | C(=C\c1ccc(C2[C@@H]3CN(Cc4ccc5c(c4)OCO5)C[C@H]2N3)cc1)/c1ccccc1 (some centres not stated) | inconclusive: -81.2%
12 | CC(=O)N1CCCCN2[C@@H](CO)[C@@H](c3ccc(-c4cccc(C)c4)cc3)[C@@H]2C1 | inactive: 21.6%
13 | CC(C)c1cn([C@H]2C[C@@H]3O[C@H](CO)CC[C@@H]3O[C@@H]2CCc2ccc(C#CC3(O)CCCC3)cc2)nn1 | inconclusive: -80.1%
14 | CCC(=O)Nc1ccc2c(c1)C(=O)N(C)C[C@H](OC)[C@@H](C)CN(C(=O)c1ccncc1)[C@@H](C)CO2 | inactive: 6.84%
15 | C[C@@H]1CCCCO[C@@H](CN(C)C(=O)C2CCCCC2)[C@@H](C)CN([C@@H](C)CO)C(=O)c2cc(NC(=O)Nc3ccc(C(F)(F)F)cc3)ccc2O1 | inconclusive: -81.5%
16 | Cc1ccccc1S(=O)(=O)N1[C@H](C#N)[C@@H](c2ccc(C#CC3CCCCC3)cc2)[C@@H]1CO | inconclusive: -82.5%
17 | COc1ccc2c3c(n(C)c2c1)[C@H](CO)NCC31CCN(Cc2ccc(-c3ccccn3)cc2)CC1 | active: -88.2%
18 | C[C@@H]1CCCCO[C@@H](CN(C)C(=O)Nc2cccc3ccccc23)[C@H](C)CN([C@H](C)CO)C(=O)c2cc(NC(=O)CCCN(C)C)ccc2O1 | inconclusive: -81.2%
19 | COc1ccc(S(=O)(=O)N2C[C@@H](O)COC[C@@H]3O[C@@H](CC(=O)NCc4ccc(Cl)c(Cl)c4)CC[C@H]32)cc1 | inactive: -3.56%

Row | SMILES | activity change
20 | C[C@H](CO)N1C[C@H](C)[C@H](CN(C)Cc2ccc(Oc3ccccc3)cc2)Oc2ccc(NC(=O)CCCCCC(=O)Nc3ccccc3N)cc2CC1=O | active: -84.3%
21 | COc1ccc(CN(C)C[C@@H]2OCCCC[C@@H](C)Oc3ccc(NC(=O)Nc4ccc(OC)cc4)cc3C(=O)N([C@H](C)CO)C[C@H]2C)cc1 | inconclusive: -80.6%
22 | C[C@@H]1CN([C@@H](C)CO)C(=O)c2cccc(NC(=O)Nc3ccc4c(c3)OCO4)c2O[C@@H]1CN(C)Cc1ccc(C(=O)Nc2ccccc2N)cc1 | active: -92.8%
23 | C[C@H]1CN([C@@H](C)CO)C(=O)Cc2cc(NC(=O)Cn3cnnn3)ccc2O[C@H]1CN(C)C | inactive: 15.7%
24 | N#Cc1ccc(-c2ccc([C@@H]3[C@@H]4CN(Cc5cocn5)C[C@H]3N4)cc2)cc1 | inconclusive: -80%
25 | C[C@@H]1CN([C@@H](C)CO)C(=O)c2cccc(NC(=O)Nc3ccc(F)cc3)c2O[C@H]1CN(C)C(=O)NC1CCCCC1 | inactive: -7.41%
26 | COc1ccc(NC(=O)Nc2ccc3c(c2)C(=O)N([C@@H](C)CO)C[C@H](C)[C@@H](CN(C)Cc2ccc(C(=O)O)cc2)O3)cc1 | inactive: 25.8%
27 | C[C@@H]1CN([C@H](C)CO)S(=O)(=O)c2ccc(C3=CCCC3)cc2O[C@@H]1CN(C)S(C)(=O)=O | inactive: 12.9%
28 | COc1cccc(C(=O)Nc2ccc3c(c2)C(=O)N(C)[C@H]2CC[C@@H](CC(=O)NCC4CC4)O[C@H]2CO3)c1 | inactive: -2.88%
29 | COc1cc(CN2[C@@H]3CNC[C@H]2C3c2ccc(-c3ccccc3)cc2)cc(OC)c1 (some centres not stated) | inconclusive: -82.4%
30 | CCS(=O)(=O)Nc1ccc2c(c1)C(=O)N(C)C[C@H](OC)[C@@H](C)CN(CCC(F)(F)F)[C@H](C)CO2 | inactive: -73.4%
31 | C[C@@H]1CCCCO[C@H](CN(C)S(=O)(=O)c2ccc(Cl)cc2)[C@H](C)CN([C@@H](C)CO)C(=O)c2cc(NC(=O)Nc3ccccc3)ccc2O1 | inconclusive: -81.3%
32 | O=C(C[C@H]1CC[C@H]2[C@@H](COC[C@@H](O)CN2C(=O)c2ccccc2)O1)NC1Cc2ccccc2C1 | inactive: 8.47%
33 | O=C(C[C@@H]1CC[C@H]2[C@@H](COC[C@@H](O)CN2S(=O)(=O)c2cccc(F)c2)O1)Nc1ccc(-c2ccccc2)cc1 | inactive: 3.79%
34 | C[C@@H]1CN([C@H](C)CO)C(=O)c2cc(C#Cc3ccccc3)cnc2O[C@H]1CN(C)C(=O)CCN1CCCCC1 | active: -89.8%
35 | Cc1ccc(S(=O)(=O)N(C)C[C@H]2OCCCC[C@H](C)Oc3ccc(NC(=O)NC4CCCCC4)cc3C(=O)N([C@H](C)CO)C[C@H]2C)cc1 | active: -82.7%
36 | C[C@@H]1CN([C@@H](C)CO)C(=O)c2cc(C3=CCCCC3)cnc2O[C@H]1CN(C)S(C)(=O)=O | inactive: 24.6%
37 | COc1ccccc1S(=O)(=O)N(C)C[C@@H]1Oc2cc(/C=C/c3ccccc3)ccc2S(=O)(=O)N([C@H](C)CO)C[C@H]1C | inconclusive: -81.6%
